Patent US20230159603A1 (XILIO DEVELOPMENT, published 2023)

B1: AK670 (Fc fusion)
chain 1: [human IgG1 Fc with changes left out here]GGSPGKIDACKRGDVTVKPSHVILLGSTVNITCSLKPRQGCFHYSRRNKLILYKFDRRINFHHGHSLNSQVTGLPLGTTLFVCKLACINSDEIQICGAEIFVGVAPEQPQNLSCIQKGEQGTVACTWERGRDTHLYTEYTLQLSGPKNLTWQKQCKDIYCDYLDFGINLTPESPESNFTAKVTAVNSLGSSSSLPSTFTFLDIVRPLPPWDIRIKFQKASVSRSTLYWRDEGLVLLNRLRYRPSNSRLWNMVNVTKAKGRHDLLDLKPFTEYEFQISSKLHLYKGSWSDWSESLRAQTPEE
chain 2: DKTHTCPPCPAPELLGGPSVFLFPPKPKDTLMISRTPEVTCVVVDVSHEDPEVKFNWYVDGVEVHNAKTKPREEQYASTYRVVSVLTVLHQDWLNGKEYKCKVSNKALPAPIEKTISKAKGQPREPQVYTLPPCRDELTKNQVSLWCLVKGFYPSDIAVEWESNGQPENNYKTTPPVLDSDGSFFLYSKLTVDKSRWQQGNVFSCSVMHEALHNHYTQKSLSLSPGGGSGGSGGSISSGLLSGRSSGPIWELKKDVYVVELDWYPDAPGEMVVLTCDTPEEDGITWTLDQSSEVLGSGKTLTIQVKEFGDAGQYTCHKGGEVLSHSLLLLHKKEDGIWSTDILKDQKEPKNKTFLRCEAKNYSGRFTCWWLTTISTDLTFSVKSSRGSSDPQGVTCGAATLSAERVRGDNKEYEYSVECQEDSACPAAEESLPIEVMVDAVHKLKYENYTSSFFIRDIIKPDPPKNLQLKPLKNSRQVEVSWEYPDTWSTPHSYFSLTFSVQVQGKDNTEGRVFTDKTSATVICRKNASISVRAQDRYYSSSWSEWASVPCSGGGGSGGGGSGGGGSRNLPVATPDPGMFPCLHHSQNLLRAVSNMLQKARQTLEFYPCTSEEIDHEDITKDKTSTVEACLPLELTKNESCLNSRETSFITNGSCLASRKTSFMMALCLSSIYEDLKMYQVEFKTMNAKLLMDPKRQIFLDQNMLAVIDELMQALNFNSETVPQKSSLEEPDFYKTKIKLCILLHAFRIRAVTIDRVMSYLNAS
B2: AK922 (Fc fusion)
chain 1: [human IgG1 Fc with changes left out here]GGSGGGSGKIDACKRGDVTVKPSHVILLGSTVNITCSLKPRQGCFHYSRRNKLILYKFDRRINFHHGHSLNSQVTGLPLGTTLFVCKLACINSDEIQICGAEIFVGVAPEQPQNLSCIQKGEQGTVACTWERGRDTHLYTEYTLQLSGPKNLTWQKQCKDIYCDYLDFGINLTPESPESNFTAKVTAVNSLGSSSSLPSTFTFLDIVRPLPPWDIRIKFQKASVSRSTLYWRDEGLVLLNRLRYRPSNSRLWNMVNVTKAKGRHDLLDLKPFTEYEFQISSKLHLYKGSWSDWSESLRAQTPEE
chain 2: DKTHTCPPCPAPELLGGPSVFLFPPKPKDTLMISRTPEVTCVVVDVSHEDPEVKFNWYVDGVEVHNAKTKPREEQYASTYRVVSVLTVLHQDWLNGKEYKCKVSNKALPAPIEKTISKAKGQPREPQVYTLPPCRDELTKNQVSLWCLVKGFYPSDIAVEWESNGQPENNYKTTPPVLDSDGSFFLYSKLTVDKSRWQQGNVFSCSVMHEALHNHYTQKSLSLSPGGGSGGSISSGLLSGRSSGPIWELKKDVYVVELDWYPDAPGEMVVLTCDTPEEDGITWTLDQSSEVLGSGKTLTIQVKEFGDAGQYTCHKGGEVLSHSLLLLHKKEDGIWSTDILKDQKEPKNKTFLRCEAKNYSGRFTCWWLTTISTDLTFSVKSSRGSSDPQGVTCGAATLSAERVRGDNKEYEYSVECQEDSACPAAEESLPIEVMVDAVHKLKYENYTSSFFIRDIIKPDPPKNLQLKPLKNSRQVEVSWEYPDTWSTPHSYFSLTFSVQVQGKDNTEGRVFTDKTSATVICRKNASISVRAQDRYYSSSWSEWASVPCSGGGGSGGGGSGGGGSRNLPVATPDPGMFPCLHHSQNLLRAVSNMLQKARQTLEFYPCTSEEIDHEDITKDKTSTVEACLPLELTKNESCLNSRETSFITNGSCLASRKTSFMMALCLSSIYEDLKMYQVEFKTMNAKLLMDPKRQIFLDQNMLAVIDELMQALNFNSETVPQKSSLEEPDFYKTKIKLCILLHAFRIRAVTIDRVMSYLNAS
B3: AK923 (Fc fusion)
chain 1: [human IgG1 Fc with changes left out here]GGSGGGSGKIDACKRGDVTVKPSHVILLGSTVNITCSLKPRQGCFHYSRRNKLILYKFDRRINFHHGHSLNSQVTGLPLGTTLFVCKLACINSDEIQICGAEIFVGVAPEQPQNLSCIQKGEQGTVACTWERGRDTHLYTEYTLQLSGPKNLTWQKQCKDIYCDYLDFGINLTPESPESNFTAKVTAVNSLGSSSSLPSTFTFLDIVRPLPPWDIRIKFQKASVSRSTLYWRDEGLVLLNRLRYRPSNSRLWNMVNVTKAKGRHDLLDLKPFTEYEFQISSKLHLYKGSWSDWSESLRAQTPEE
chain 2: DKTHTCPPCPAPELLGGPSVFLFPPKPKDTLMISRTPEVTCVVVDVSHEDPEVKFNWYVDGVEVHNAKTKPREEQYASTYRVVSVLTVLHQDWLNGKEYKCKVSNKALPAPIEKTISKAKGQPREPQVYTLPPCRDELTKNQVSLWCLVKGFYPSDIAVEWESNGQPENNYKTTPPVLDSDGSFFLYSKLTVDKSRWQQGNVFSCSVMHEALHNHYTQKSLSLSPGGGSGGSGGSISSGLLSGRSSGPIWELKKDVYVVELDWYPDAPGEMVVLTCDTPEEDGITWTLDQSSEVLGSGKTLTIQVKEFGDAGQYTCHKGGEVLSHSLLLLHKKEDGIWSTDILKDQKEPKNKTFLRCEAKNYSGRFTCWWLTTISTDLTFSVKSSRGSSDPQGVTCGAATLSAERVRGDNKEYEYSVECQEDSACPAAEESLPIEVMVDAVHKLKYENYTSSFFIRDIIKPDPPKNLQLKPLKNSRQVEVSWEYPDTWSTPHSYFSLTFSVQVQGKDNTEGRVFTDKTSATVICRKNASISVRAQDRYYSSSWSEWASVPCSGGGGSGGGGSGGGGSRNLPVATPDPGMFPCLHHSQNLLRAVSNMLQKARQTLEFYPCTSEEIDHEDITKDKTSTVEACLPLELTKNESCLNSRETSFITNGSCLASRKTSFMMALCLSSIYEDLKMYQVEFKTMNAKLLMDPKRQIFLDQNMLAVIDELMQALNFNSETVPQKSSLEEPDFYKTKIKLCILLHAFRIRAVTIDRVMSYLNAS
B4: AK918 (Fc fusion)
chain 1: [human IgG1 Fc with changes left out here]PGGSGPKIDACKRGDVTVKPSHVILLGSTVNITCSLKPRQGCFHYSRRNKLILYKFDRRINFHHGHSLNSQVTGLPLGTTLFVCKLACINSDEIQICGAEIFVGVAPEQPQNLSCIQKGEQGTVACTWERGRDTHLYTEYTLQLSGPKNLTWQKQCKDIYCDYLDFGINLTPESPESNFTAKVTAVNSLGSSSSLPSTFTFLDIVRPLPPWDIRIKFQKASVSRSTLYWRDEGLVLLNRLRYRPSNSRLWNMVNVTKAKGRHDLLDLKPFTEYEFQISSKLHLYKGSWSDWSESLRAQTPEE
chain 2: DKTHTCPPCPAPELLGGPSVFLFPPKPKDTLMISRTPEVTCVVVDVSHEDPEVKFNWYVDGVEVHNAKTKPREEQYASTYRVVSVLTVLHQDWLNGKEYKCKVSNKALPAPIEKTISKAKGQPREPQVYTLPPCRDELTKNQVSLWCLVKGFYPSDIAVEWESNGQPENNYKTTPPVLDSDGSFFLYSKLTVDKSRWQQGNVFSCSVMHEALHNHYTQKSLSLSPGGGSGGSDSGGFMLTSGPIWELKKDVYVVELDWYPDAPGEMVVLTCDTPEEDGITWTLDQSSEVLGSGKTLTIQVKEFGDAGQYTCHKGGEVLSHSLLLLHKKEDGIWSTDILKDQKEPKNKTFLRCEAKNYSGRFTCWWLTTISTDLTFSVKSSRGSSDPQGVTCGAATLSAERVRGDNKEYEYSVECQEDSACPAAEESLPIEVMVDAVHKLKYENYTSSFFIRDIIKPDPPKNLQLKPLKNSRQVEVSWEYPDTWSTPHSYFSLTFSVQVQGKDNTEGRVFTDKTSATVICRKNASISVRAQDRYYSSSWSEWASVPCSGGGGSGGGGSGGGGSRNLPVATPDPGMFPCLHHSQNLLRAVSNMLQKARQTLEFYPCTSEEIDHEDITKDKTSTVEACLPLELTKNESCLNSRETSFITNGSCLASRKTSFMMALCLSSIYEDLKMYQVEFKTMNAKLLMDPKRQIFLDQNMLAVIDELMQALNFNSETVPQKSSLEEPDFYKTKIKLCILLHAFRIRAVTIDRVMSYLNAS
B5: AK919 (Fc fusion)
chain 1: [human IgG1 Fc with changes left out here]GGSPGKIDACKRGDVTVKPSHVILLGSTVNITCSLKPRQGCFHYSRRNKLILYKFDRRINFHHGHSLNSQVTGLPLGTTLFVCKLACINSDEIQICGAEIFVGVAPEQPQNLSCIQKGEQGTVACTWERGRDTHLYTEYTLQLSGPKNLTWQKQCKDIYCDYLDFGINLTPESPESNFTAKVTAVNSLGSSSSLPSTFTFLDIVRPLPPWDIRIKFQKASVSRSTLYWRDEGLVLLNRLRYRPSNSRLWNMVNVTKAKGRHDLLDLKPFTEYEFQISSKLHLYKGSWSDWSESLRAQTPEE
chain 2: DKTHTCPPCPAPELLGGPSVFLFPPKPKDTLMISRTPEVTCVVVDVSHEDPEVKFNWYVDGVEVHNAKTKPREEQYASTYRVVSVLTVLHQDWLNGKEYKCKVSNKALPAPIEKTISKAKGQPREPQVYTLPPCRDELTKNQVSLWCLVKGFYPSDIAVEWESNGQPENNYKTTPPVLDSDGSFFLYSKLTVDKSRWQQGNVFSCSVMHEALHNHYTQKSLSLSPGGGSGGSGGSDSGGFMLTSGPIWELKKDVYVVELDWYPDAPGEMVVLTCDTPEEDGITWTLDQSSEVLGSGKTLTIQVKEFGDAGQYTCHKGGEVLSHSLLLLHKKEDGIWSTDILKDQKEPKNKTFLRCEAKNYSGRFTCWWLTTISTDLTFSVKSSRGSSDPQGVTCGAATLSAERVRGDNKEYEYSVECQEDSACPAAEESLPIEVMVDAVHKLKYENYTSSFFIRDIIKPDPPKNLQLKPLKNSRQVEVSWEYPDTWSTPHSYFSLTFSVQVQGKDNTEGRVFTDKTSATVICRKNASISVRAQDRYYSSSWSEWASVPCSGGGGSGGGGSGGGGSRNLPVATPDPGMFPCLHHSQNLLRAVSNMLQKARQTLEFYPCTSEEIDHEDITKDKTSTVEACLPLELTKNESCLNSRETSFITNGSCLASRKTSFMMALCLSSIYEDLKMYQVEFKTMNAKLLMDPKRQIFLDQNMLAVIDELMQALNFNSETVPQKSSLEEPDFYKTKIKLCILLHAFRIRAVTIDRVMSYLNAS

The binders below were run against human IL-12 receptor (IL-12Rβ1 and IL-12Rβ2) on HEK-Blue IL-12 reporter cells (human, UniProt P42701 24-662; Q99665 24-862) (assay: cell-based or functional assay).

In order of rising “Aklusion (Run 1)” value:
1. B1  30.1 fold
2. B2  48 fold
3. B5  49.9 fold
4. B3  63.4 fold
5. B4  117 fold

In order of rising “Aklusion (Run 2)” value:
1. B1  35 fold
2. B2  44.7 fold
3. B3  48.2 fold
4. B5  59.8 fold
5. B4  126 fold

In order of falling “Average Aklusion” value:
1. B4  122 fold
2. B3  55.8 fold
3. B5  54.9 fold
4. B2  46.3 fold
5. B1  32.5 fold
